Measured values reported in the supplement of paper PMC11417369.
± gives the standard deviation of the averaged measurements. The list shows a part of the results.

Test system: PfAP2-G AP2 domain (GST-tagged)
Experiment: gcPBM binding intensity (ln(normalized median fluorescence intensity)); higher = stronger DNA binding
How it was run: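 The highest Masliner-normalised natural-log median intensity across replicate spots of either probe orientation is reported as binding intensity. GST-tagged P. falciparum DNA-binding domains expressed in E. coli were applied for 1 h to an Agilent 4 × 180k array of primer-extended double-stranded 36-bp intergenic genomic probes plus negative controls, and bound protein was detected with Alexa488 anti-GST antibody and scanned at 488 nm.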

Row | Sequence | gcPBM binding intensity (ln)
1 | CACAGACATATATATACACACTTTTATTTAAATAAC [CACACA_site4962] | 10.3 ± 0.23
2 | TCTCAGTAAATTAAATGTACATAAGGGAGGAACTAT [XGTACX_site8045] | 11 ± 0.63
3 | TTGTGGATTTTGTGCGCACACACATGCAAAAAGAAA [CACACA_site1147] | 10.9 ± 0.66
4 | TAAATATATGCATATACACACAACAAAAAAATATAT [CACACA_site2341] | 10.07 ± 0.028
5 | TATAAAAATAATATTACACACATGTAAAATGGCTGT [CACACA_site5755] | 9.86 ± 0.028
6 | AAAAAAAAAATGTGCACACGCGTACACCCAAAAAAA [CACACA_site5149] | 11.7 ± 0.99
7 | TTTTTGTATCCTTCTTCTTTTTCCAGACTACATTAT [XGTACX_negctrl_site216] | 10.3 ± 0.18
8 | ATATTATTTTAAAAAAGTACATTTTTAAGAATTCTT [XGTACX_site6630] | 11.2 ± 0.79
9 | AACATATAAATAAACTGTACATATATATATATATAT [XGTACX_site1056] | 11 ± 0.69
10 | GGGGAAAAAAAAAAAGGAAAAAGAAAAAAAAAAAAA [GTGCAC_negctrl_site489] | 9.86 ± 0.28
11 | TATCATTATGTAGAAACACACATAAGCTTCGGTTCA [CACACA_site2766] | 9.7 ± 0.18
12 | AATTGCATAATATATTCACACATTTTTAAGTGATAC [CACACA_site5679] | 9.93 ± 0.13
13 | GTAAAGGCTATATATGTGCACATTTTTTTTTTTTTT [GTGCAC_site9925] | 10.27 ± 0.092
14 | TTATGGTTATACATATGTACATATATATATATATAT [XGTACX_site1494] | 11.4 ± 0.92
15 | ATAAAATTTATATAAGCACACAAATATATATTTATA [CACACA_site9083] | 9.95 ± 0.014
16 | ATATATTTAATTTATGGTACACATAATTTTTTTAGA [XGTACX_site848] | 11.2 ± 0.79
17 | ATATTATATAAATATACACACATTGTTTTATAGCAT [CACACA_site2386] | 10.02 ± 0.035
18 | AAAAAAAAATACATATGTACATATACATATATATAT [XGTACX_site2975] | 11 ± 0.58
19 | CACAAAAGTAAGCACGCACACACAACCTGAAATAAA [CACACA_site166] | 10.3 ± 0.24
20 | TTAAAAAAAAGACACACACACATACACATATTTATA [CACACA_site7535] | 10.2 ± 0.18
21 | TATATATATATATATACACACATATATATAAATATA [CACACA_site2035] | 10 ± 0.71
22 | TTAGTCATATATATATGTACACACATATATATATTT [XGTACX_site2948] | 11.3 ± 0.9
23 | ATTTTTATATAATGAACACACATATTATATCATTTA [CACACA_site1572] | 9.84 ± 0.085

Row | Sequence | gcPBM binding intensity (ln)
24 | AAAAGAAAATAAGAAACACACAAAAATATGTAAAAA [CACACA_site7694] | 9.85 ± 0.2
25 | TTATATATATATATATGTACGAAAAAGAAAAAAAAG [XGTACX_site6761] | 11.1 ± 0.76
26 | TATATATATATAATATGTACATATAATCAACATTTT [XGTACX_site3915] | 11.2 ± 0.69
27 | AAAATCCACATTTTAGTACACACTTAAAAAATTATT [CACACA_site2955] | 11.3 ± 0.86
28 | GAACATACTCAAATAGCACACACATAAATAAAAATG [CACACA_site9283] | 10.4 ± 0.42
29 | TTTTCTGTATATTGTGTGCACACAATTAACAAAAAA [GTGCAC_site9817] | 10.7 ± 0.47
30 | AAAAAAAAAAAAAATGCACACAATGGCTAGCTGTAC [CACACA_site2273] | 11.1 ± 0.46
31 | TGGAGGTCAGTTCACAGTACCCAGGAAATCTACGGA [XGTACX_site1995] | 10.9 ± 0.61
32 | ACCCATGATTGTTACAGTACTCTACTTTCTAATATA [XGTACX_site98] | 11 ± 0.52
33 | AAACTGTCGCTCATAAAGAAGAATGAAATACATTAA [TGCATGCA_negctrl_site60] | 10.1 ± 0.34
34 | ATATATGCATATTATACACACATATGTATATACATT [CACACA_site965] | 9.995 ± 0.035
35 | ATTTATTTTAATATATGTACATATATTTTTTTATTA [XGTACX_site3389] | 11.1 ± 0.68
36 | ATATAATATTACACAAGTACAAAAATTAATACTAAA [XGTACX_site482] | 11.1 ± 0.61
37 | CCATAGATATTTTATACACACATATAACATATTAAT [CACACA_site6312] | 9.88
38 | ATATTGACAAATATTACACACATATATAAATATGTA [CACACA_site7835] | 9.9 ± 0.11
39 | TATATATGTTAAAACGTGCACATATATATATATATA [GTGCAC_site9589] | 10.3 ± 0.38
40 | TAGTAATATATATTTTGTACATAAAATAATATATAA [XGTACX_site7971] | 10.9 ± 0.59
41 | CGTTATTATCCACATACACACAGGAATAAAAAATTA [CACACA_site2883] | 10.3 ± 0.23
42 | ATTTGAAATGCATGAACACACACAGCTATAAATGCA [CACACA_site8229] | 9.99
43 | ATAAAATATAAAAAAAGTACAAAAAAAAAAAAAAAA [XGTACX_site6657] | 11.2 ± 1.1
44 | TTAATTCTACTTATTACACACATATTAATCAAAAAT [CACACA_site1478] | 10.2 ± 0.26
45 | TATATATATATAAACAGTACACAAATTGTAAATAAA [XGTACX_site8268] | 11 ± 0.48
46 | GAAATAATTTCATATACACACATATACATACATACA [CACACA_site1358] | 10.2 ± 0.16

Row | Sequence | gcPBM binding intensity (ln)
47 | AAAAGAATATAAAGATACATTGTGATATGGGACAAA [CACACA_negctrl_site405] | 10.4 ± 0.28
48 | TATATATATATTGAAGTGCAAAATACTGTACGTAAT | 11.6 ± 0.95
49 | AACATAGAAACGTTATGTACATATTGAAGGATATTA [XGTACX_site6015] | 11 ± 0.61
50 | AAATATTTATACTATACACACCCAATTTAAAAAAAA [CACACA_site6669] | 10.1 ± 0.057
51 | ATTTTTTTATGTACACAAAAAAAAAAAAAAATTTAA [CACACA_negctrl_site1028] | 11.6 ± 0.76
52 | TATATATATATATATATTGAAATTTATAATAATATT [TGCATGCA_negctrl_site407] | 9.88 ± 0.32
53 | TACATAAATTAAAACACACACACACTAAAAAAAAAA [CACACA_site7130] | 10.3 ± 0.4
54 | TATTAATTAAACCATACACACATAATTTTTTTATAA [CACACA_site843] | 9.83 ± 0.099
55 | ATATTATAATTAAAACGTACGTATTTATGAATTCAT [XGTACX_site1047] | 11.3 ± 0.61
56 | GTTAATATTTACTACACACACTTAAAATATGTATAT [CACACA_site4194] | 10.08 ± 0.028
57 | TTTTCATTTTTCTTTACACACATATATTTATTTATA [CACACA_site7119] | 10.1 ± 0.11
58 | AAATGAGTATTCATATGTACACAAATAAAAAATTAA [XGTACX_site2968] | 11.4 ± 0.76
59 | CATTTAAAGGACAAGCTGCACTTACAAAATAAAAAA | 10.8 ± 0.76
60 | AATGACAACCTTGTCACACATATATATATATATATA [CACACA_site5977] | 10.2 ± 0.33
61 | TTTTTTATTTGACAAGCACACACTTAAATATATATA [CACACA_site3358] | 10.2 ± 0.33
62 | ATGGAAGGAAACAATAAAAAAAAAAAAAAATATATA [XGTACX_negctrl_site594] | 9.63 ± 0.21
63 | AAATATCAACAAAAATGTACAAATGTAAAAGAATAT [XGTACX_site4676] | 10.7 ± 0.3
64 | ATTTCTAGTTTAAGATGTACTTTAATAAAAATTATT [XGTACX_site4820] | 11 ± 0.77
65 | ATCTTTGGAAATTTATGTACTTATATTTATATTGTA [XGTACX_site6606] | 11.3 ± 0.79
66 | AGGTTAAAAATAAATACACACATTTTATGTCTGTAT [CACACA_site996] | 9.96 ± 0.014
67 | ACTATACAGTTATACACACACATATATATATAATAT [CACACA_site310] | 10.2 ± 0.035
68 | TTTTTTTTTTAATAAAGTACATATAAATTACCTAAT [XGTACX_site4434] | 11.2 ± 0.88
69 | TTTTTTAAACATATTATGTGTATTACATAGTTATGC [XGTACX_negctrl_site596] | 9.99 ± 0.23

Row | Sequence | gcPBM binding intensity (ln)
70 | TACACGCTAAAATACACACACACACCCACATATATA [CACACA_site4153] | 10.2 ± 0.29
71 | TAAACGTTATATAGTGCATGTCATATTTTATTATAT [TGCATGCA_site935] | 9.845 ± 0.064
72 | TTATAATATTATAAAATAACATTTATTAATTATTGG [CACACA_negctrl_site1794] | 9.69 ± 0.12
73 | TTATTATATTAAAATTGTACTTGCTTTCAATATGAT [XGTACX_site5305] | 11.1 ± 0.73
74 | ACGCTAATTATGTGCACACAAATTAAAGGTCTACAA [CACACA_site147] | 10.7 ± 0.4
75 | TGTTTCTGCTCTGGACATTTTTAAAAAAGGGAAAGC [CACACA_negctrl_site1463] | 10.5 ± 0.44
76 | ACAAAAAAACATGAAACACACACAAATATATATATA [CACACA_site8566] | 9.96 ± 0.25
77 | TGCCTATTTTGGATGTGTACACATATATATATTTAT [XGTACX_site6741] | 11.7 ± 0.88
78 | ATTCTATAATATAAGAGTACTTATTTTTTTTAATTT [XGTACX_site7671] | 11.1 ± 0.76
79 | TATAAAATTAAACAAAGTACTAGACATATATATAGA [XGTACX_site3247] | 10.7 ± 0.31
80 | AATGTTATTTGTTTATCACACATTAGGATGTTTATA [CACACA_site5710] | 9.82 ± 0.16
81 | TATACATACATACATACACACACACCGATATATACA [CACACA_site8184] | 10.1 ± 0.15
82 | TTCCAAAAAATTATTACACACATATGGGCACATATA [CACACA_site679] | 10.6 ± 0.4
83 | ATGAATTTATTACATTGTACATTTTTAAAAGGTTAC [XGTACX_site124] | 10.8 ± 0.49
84 | TTATATATTTTTTTTTGTACATAGAAGAGGGAAAAA [XGTACX_site2178] | 10.8 ± 0.67
85 | AAAAAAAAAAAAAACACACACACAAGAGTATATAAA [CACACA_site6580] | 10.1 ± 0.27
86 | AATAAAATGAAATGAAATAAAAAAAAAAAAAAAATG [TGCATGCA_negctrl_site305] | 9.84 ± 0.26
87 | ACTTATTGTGGTTTTGCATGTAGCATTTTTACATAC [TGCATGCA_site247] | 10.37 ± 0.092
88 | TATACCAATGAATGAGTGCAAAGAAGATAAGGAAAA | 10.2 ± 0.13
89 | AAGGTATTTATAACTACACACTTATTTATAACCTAA [CACACA_site6194] | 9.935 ± 0.007
